In all, about 110,000 compounds went through this assay and about 230 (0.21%) showed an effect of 50% or more. The list shows a part of the results.
Molecular target: DPAP1 (Plasmodium falciparum, UniProt Q8IIJ9)
Assay: primary screen, percent inhibition; read by cleavage of a fluorogenic dipeptide substrate; higher = more effect of the substance
Parameters: species or system P. falciparum D10 trophozoite lysates; single well
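Also: 30 min substrate incubation versus DMSO and 10 µM JCP410 controls.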

Sequence of DPAP1 (Q8IIJ9 whole entry, looked up): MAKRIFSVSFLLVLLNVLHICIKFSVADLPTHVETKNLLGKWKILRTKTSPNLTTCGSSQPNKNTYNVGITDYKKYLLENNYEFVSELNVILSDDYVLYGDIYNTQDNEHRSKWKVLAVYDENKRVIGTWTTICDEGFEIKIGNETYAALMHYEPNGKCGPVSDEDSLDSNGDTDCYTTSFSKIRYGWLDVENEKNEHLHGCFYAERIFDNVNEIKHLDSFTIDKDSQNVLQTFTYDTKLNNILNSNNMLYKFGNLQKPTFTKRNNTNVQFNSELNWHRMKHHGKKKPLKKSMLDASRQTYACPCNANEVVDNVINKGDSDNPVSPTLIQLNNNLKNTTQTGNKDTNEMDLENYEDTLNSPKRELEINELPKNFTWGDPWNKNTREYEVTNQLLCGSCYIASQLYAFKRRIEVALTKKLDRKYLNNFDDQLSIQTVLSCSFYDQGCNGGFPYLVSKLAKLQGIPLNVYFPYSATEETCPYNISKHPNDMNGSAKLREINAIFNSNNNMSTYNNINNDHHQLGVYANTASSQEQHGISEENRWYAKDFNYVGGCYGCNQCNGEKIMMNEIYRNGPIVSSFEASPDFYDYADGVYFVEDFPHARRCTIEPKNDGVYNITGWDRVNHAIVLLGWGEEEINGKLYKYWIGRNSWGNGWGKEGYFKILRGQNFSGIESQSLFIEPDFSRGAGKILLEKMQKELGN

SMILES | % Inhibition @ 10 uM
CCC1CCCCN1C(=O)Cn1c(SCc2ccccc2C)nc2ccncc21 (stereo not drawn) | 5.73%
CCOC(=O)c1oc2ccc(S(=O)(=O)Nc3noc4ccccc34)cc2c1C | 3.77%
COc1ccc2[nH]c3c(=O)n(CC(=O)NC4CCCCC4)c(=S)[nH]c3c2c1 | -7.65%
O=C(N/C(=C\c1cccc(F)c1)C(=O)N1CCOCC1)c1ccccc1Br | -3.06%
CC(=O)Nc1nonc1N1C(=N)S/C(=C\c2ccc(-c3cccc(Cl)c3Cl)o2)C1=O | -2.85%
CC1CCN(c2ccc3nonc3c2[N+](=O)[O-])CC1 | 0.827%
CC1CCCC(NC(=O)c2cccc3c2SCCC3=O)C1C (stereo not drawn) | -1.08%
COc1ccc(C(=O)Nc2ccc(S(N)(=O)=O)cc2)cc1 | -1.28%
COc1cccc(OCCNC(=O)c2ccccc2Sc2ccccc2C#N)c1 | 0.0719%
CC1CCCC(Nc2cnn(C34CC5CC(CC(C5)C3C(=O)O)C4)c(=O)c2Cl)C1C (stereo not drawn) | 1.15%
CCc1ccc(C(=O)c2cc3ccc(O)cc3oc2=O)cc1 | 2.12%
C=CCNC(=O)c1cc2c(=O)n3cc(C)ccc3nc2n(CCN2CCOCC2)c1=N | -1.47%
O=C1C(SCc2ccccc2)=C/C(=N/S(=O)(=O)c2cccs2)c2ccccc21 | 14.7%
CCc1ccc(-n2nnc(-c3nc(-c4ccc(OC)cc4)no3)c2N)cc1 | -3.3%
COc1ccc(CCNC(=O)CCCCCNc2nc(S)nc3ccccc23)cc1OC | 1.42%
COc1cc(C2CC(=O)OC3=C2C(=O)c2ccccc2C3=O)ccc1O (stereo not drawn) | 3.47%
Cc1ccc(S(=O)(=O)CC(C)N2CCCCC2)c(S(=O)(=O)CC(C)N2CCCCC2)c1 (stereo not drawn) | -6.95%
Cc1nn(-c2ccc(Cl)cc2)c(O)c1C=C1C(=O)NC(=O)NC1=O | 6.5%
CCOc1ccc(/C=C(\NC(=O)c2ccccc2)C(=O)N2CCN(C)CC2)cc1 | -3.19%
CS(=O)(=O)N(CC(=O)N1CCN(c2cccc(Cl)c2)CC1)c1ccc(F)cc1 | 2.49%
O=C(c1ccc2c(c1)OCO2)N(Cc1nc(-c2ccccc2)no1)C1CCCCC1 | 2.14%
O=C(c1cc2nc(-c3ccc4c(c3)OCO4)cc(C(F)(F)F)n2n1)N1CCCCC1c1cccnc1 (stereo not drawn) | 0.9%
Cc1ccc(-c2nnc3sc(-c4cccnc4)nn23)cc1 | -0.666%
Cc1ccccc1-n1nc2c(c1NC(=O)C13CC4CC(CC(C4)C1)C3)CS(=O)(=O)C2 | -5.15%

SMILES | % Inhibition @ 10 uM
CC(C)N(Cc1ccccc1)C(=O)c1cccc(Cl)c1 | -2.21%
COc1ccc(Cl)cc1NC(=O)c1c(-c2ccccc2)noc1C | -4.14%
CCOCCc1nnc(NC(=O)c2cn(-c3ccccc3)nc2-c2ccccc2)s1 | 0.655%
Cc1sc2ncn(CC(=O)NCCC3=CCCCC3)c(=O)c2c1S(=O)(=O)N1CCCCC1 | 11.4%
COC(=O)/C=C1\SC(NC(=O)c2ccc(Cl)cc2)=NC1=O | 1.91%
OC(CN1CCCCCC1)c1ccccc1 (stereo not drawn) | 0.132%
Oc1cc2cc(O)nc(O)c2c(O)n1 | 6.24%
O=C1CC(c2ccc(F)cc2)c2cc3c(cc2N1)OCO3 (stereo not drawn) | 2.17%
CCCOC(=O)CNc1nnc(O)nc1O | 5.02%
CC(C)(C)OC(=O)N1CCC(C(=O)N[C@@H](Cc2ccc3ccccc3c2)C(=O)N[C@@H](CCCCNC(=O)OCc2ccccc2)C(=O)CO)CC1 | 2.22%
O=C1SCCC1NS(=O)(=O)c1ccc(Cl)cc1 (stereo not drawn) | 5.43%
O=C(NC1(C(F)(F)F)C(=O)Nc2c1c(=O)[nH]c(=O)n2-c1ccc(F)cc1)c1ccc(F)cc1 (stereo not drawn) | -3.34%
O=C(CSC1CC(=O)N(c2ccc(Br)cc2)C1=O)Nc1cccc(F)c1 (stereo not drawn) | 5.39%
O=C(CN(c1cccc(Br)c1)S(=O)(=O)c1ccccc1)Nc1cccnc1 | -3.53%
Cc1nc2nc(CNC(=O)OC(C)(C)C)nn2c(C)c1CCC(=O)NC1CCCCC1 | -0.447%
Cc1nnc(SCC(=O)N2CCCCCC2)c2nn(-c3ccccc3)c(C)c12 | -8.68%
COc1cc(C(=O)n2cnc3ccccc32)cc(OC)c1OC | -0.48%
COCc1[nH]nc2c1C1(CCN(C(=O)OC(C)(C)C)CC1)C(C#N)=C(N)O2 | 5.87%
CCOc1ccccc1NC1=C(Cl)C(=O)N(c2ccc(OC)cc2)C1=O | -2.77%
COC(=O)c1sccc1NC(=O)c1noc2c1CCCC2 | -8.16%
Cc1c(Cl)cccc1-n1nnc(-c2nc(-c3ccccc3)no2)c1N | 3.22%
O=C(NCCc1ccccc1)c1ccco1 | -1.98%
O=C(Nc1ccc(F)cc1)c1cccc(C(=O)Nc2ccc(F)cc2)c1 | 5.06%
O=C(O)CCCCCN1C(=O)C2C3c4ccccc4C(c4ccccc43)C2C1=O (stereo not drawn) | -4.76%
